# This is one part of the list. At the low end of the ranking the order means little.
# Target: T1, GST-Rok-C97-191 (UniProt O34857)
# T1 sequence: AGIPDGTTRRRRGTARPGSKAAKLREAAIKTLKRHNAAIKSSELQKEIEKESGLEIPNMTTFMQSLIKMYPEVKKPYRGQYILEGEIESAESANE
# Assay: protein binding microarray;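 also: rank score from −0.5 (least bound) to 0.5 (best bound)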
# Conditions: Rok is a gene silencer of Bacillus subtilis; high values mean tight binding; most listed sequences are background and not binding sites; double strand, one strand shown
row,Sequence,binding signal [E-score]
1,AAAGTATG,0.249
2,AAGTTATA,0.24
3,AGCTTGCA,0.00305
4,TAGGCTGA,0.0315
5,CGCATTGA,-0.107
6,GGCTAGGA,-0.0824
7,TCAAACAA,0.0983
8,AGCCGGCT,-0.277
9,GACTGCAA,-0.111
10,ATTATGGA,0.0104
11,ACTTAGTG,0.228
12,CAGGGAAA,-0.128
13,CATACCGC,-0.147
14,ATCAGGGA,-0.142
15,CTATAAAC,0.291
16,GTCAGGGA,-0.345
17,ATAGTCTC,0.128
18,AGTACCTC,0.0552
19,AGTAGGAC,-0.0484
20,TCAGGTAA,0.00776
21,AATCAGCG,-0.104
22,ACTTTTCC,-0.0516
23,AGCGAGAG,-0.195
24,CCACCGGG,-0.318
25,ACTATAGA,0.241

row,Sequence,binding signal [E-score]
1,CTTCGAAC,-0.152
2,AGCTTGAA,0.0643
3,GAGGTATC,0.108
4,CAGCCGCC,-0.398
5,CACCTCCC,-0.195
6,AAAATCGA,0.156
7,AGCTTGGC,-0.199
8,ATAATTAT,0.137
9,CGATAGCA,0.043
10,AGACTCAG,-0.277
11,AAACAGTG,-0.00365
12,GGGAATAA,0.0439
13,ATTGTACG,0.142
14,ATCAGTGA,-0.127
15,AACAGATG,-0.05
16,CGGGTGAA,-0.0151
17,ACCGAGAC,-0.149
18,GTTCTGTA,0.203
19,GCGGTATA,0.295
20,AGGCCGTA,-0.098
21,CAGGGCAC,-0.215
22,AAGGAGAG,-0.144
23,ATCATACC,0.205
24,ACATCGTA,0.0718
25,AAAACGAC,-0.0977

row,Sequence,binding signal [E-score]
1,TAGCCTGA,-0.0404
2,GAAAATTA,0.254
3,GAACAAAA,0.0133
4,GTGCGTTA,-0.0744
5,AAAGTAAT,0.144
6,ATTCGCCC,-0.192
7,GAGATAGA,0.15
8,CGGACACA,0.0621
9,CGGGGACG,-0.179
10,CCTAAGAC,-0.0994
11,AATTGGAC,0.107
12,CCCAAAGA,-0.215
13,TAAGAAAA,0.151
14,GAACCCGC,-0.154
15,CAATTCCA,0.12
16,CAGCCACC,-0.211
17,AGTAGCGG,0.238
18,ACGAAGAA,-0.0377
19,ATATGGGC,-0.15
20,GACACCGC,-0.363
21,GGAAGCTA,0.242
22,GATCGAGA,-0.044
23,ACGCTAGT,0.14
24,ACACCGTA,0.0572
25,CAGTAGGG,0.0282

row,Sequence,binding signal [E-score]
1,ATAATTCC,0.215
2,CTTGCTCA,0.0296
3,AATTATTA,0.3
4,GAGAGCTA,0.101
5,GCATTCAC,0.0171
6,GAGCGAAC,-0.207
7,CCAAGCGG,-0.177
8,CAAGTTCC,-0.056
9,AAGCATGA,-0.0477
10,TATGGCGA,-0.137
11,AGATAATG,0.273
12,GTACGTGA,0.154
13,CGTTTGAG,0.0202
14,ACGAGTTG,0.0372
15,CATGTATC,0.232
16,GTAGTCAA,0.205
17,CCCTAAGC,-0.217
18,CGCGTTAG,-0.0711
19,GCACATTA,0.133
20,AACCGTCC,-0.146
21,AGAGTGTG,-0.227
22,TCCACACA,-0.0316
23,AGGCCTGC,-0.304
24,CGTTGCAG,-0.113
25,ACGCCTAC,0.1

row,Sequence,binding signal [E-score]
1,ATACGCAG,0.0903
2,ACTGGCGG,-0.16
3,CGAATGGC,-0.0846
4,AGCCATCA,-0.0573
5,AGGTCTTC,-0.124
6,ACTCTATC,0.15
7,AGAATATA,0.231
8,GCCAGGAA,-0.127
9,AACTTGCA,0.161
10,AAAGACAT,-0.151
11,ACCCCCGT,-0.19
12,GCACTTAA,0.0199
13,AACTCACC,-0.0323
14,GGCGGAGA,-0.286
15,ATTGGTGA,-0.176
16,ATAATCCA,0.137
17,CAAGGCTG,-0.146
18,CGGAACAA,-0.019
19,GCTGGGAC,-0.266
20,AAACGAAG,0.00465
21,CTTTGGGA,-0.248
22,TCCGTGCA,-0.0308
23,CATGGTTC,0.0199
24,GCCATCGA,-0.12
25,CTATGGAG,0.0321

row,Sequence,binding signal [E-score]
1,ATCGCAAC,0.0155
2,ATGCTCGG,0.0326
3,CGGGCATC,-0.151
4,AACAAACC,-0.151
5,GATCCGCA,-0.179
6,GATCAGGA,-0.0408
7,CGAGCTCC,-0.209
8,CTTAAAAA,-0.0124
9,TGGCGACA,-0.211
10,ACCAACCC,-0.0889
11,AGGAGCTC,0.0384
12,CTGACCTA,0.0445
13,CAACCCGC,-0.137
14,TGAAAACA,-0.0599
15,CCACCGAC,-0.0637
16,CCACCTCC,-0.199
17,GGTCGACA,-0.101
18,GAAAAGTC,-0.0348
19,CCCAACAC,-0.159
20,CGATCACC,-0.0971
21,AGTATACT,0.321
22,CCTTGGAA,-0.0362
23,GATTCTCA,0.131
24,AGGCAGTC,-0.171
25,TCTCGAAA,-0.00488

row,Sequence,binding signal [E-score]
1,GATATGAA,0.0589
2,AGCCCCTG,-0.213
3,CGACGATA,0.153
4,TAGACGGA,-0.313
5,CTGGGCGC,-0.28
6,AGGAGAAT,0.162
7,AAAGCAGG,-0.211
8,ACCTCTTC,-0.147
9,CCTAATCG,-0.143
10,ATTCTGAG,0.126
11,GCTGGCTA,-0.0491
12,GGCATCCC,-0.237
13,GACGTCTC,-0.169
14,ATCATCAA,-0.0196
15,ATCGCCTA,-0.0143
16,AACAAATG,0.11
17,ACCGGTAC,0.156
18,GGACGTCC,-0.0863
19,AAATCTGT,0.141
20,GAAGTCAC,0.043
21,GGGGGGCA,-0.354
22,CGTATTGA,0.179
23,ACTTGAAA,0.0997
24,ACAAGGAC,-0.136
25,CCTCAGAA,-0.071

row,Sequence,binding signal [E-score]
1,AAGCGTGG,-0.102
2,GAGGCTCC,-0.255
3,TAATATTA,0.287
4,ACTCACCA,0.157
5,TGATTCAA,-0.139
6,ATAGCGTG,0.00421
7,CTAGGGCA,-0.142
8,TCCCACGA,-0.189
9,CCTCACCA,-0.151
10,TACAGAAA,0.14
11,AGTGACTA,0.181
12,CTGGCAAC,-0.193
13,GTCGCTAA,0.157
14,ATTAATGA,0.16
15,GTTTCTGA,0.0641
16,TCACTCCA,-0.121
17,AATGCGTC,0.0333
18,GCACTACA,-0.0501
19,ACCCCCGA,-0.369
20,GATGCACA,-0.0663
21,AAAAAGTG,-0.0823
22,AACCCACA,0.0239
23,AGTTTACG,0.227
24,GGCCGGAA,-0.216
25,AATCATGG,0.0485

row,Sequence,binding signal [E-score]
1,ACGTAGTG,0.00856
2,CTTCCTAA,0.04
3,GACAGCCA,-0.00173
4,AGCAGTCA,0.0635
5,TGGTGGAA,-0.0962
6,CAAGTGTA,0.217
7,AACTTAAC,0.0579
8,AGTCAACT,0.173
9,ATGAAGGC,-0.0722
10,AACTGTCT,-0.0968
11,AAGAGTAC,0.0437
12,CCCGCTGA,-0.08
13,CTCAAATC,0.118
14,CCCCAACC,-0.334
15,CCAATGAA,-0.197
16,AGGTCAGC,-0.22
17,AAGTGGCT,-0.0987
18,GGTGCAAC,-0.0642
19,ACTCTTTG,0.0114
20,ACGTTGGG,-0.0548
21,GCTCGGAC,-0.341
22,GATTAATA,0.268
23,CTGCAATA,-0.00883
24,ACCCGAGG,-0.144
25,CCTCGCAA,-0.0698

row,Sequence,binding signal [E-score]
1,AACAATGC,-0.00209
2,ATGATAAG,0.09
3,GCAAGTTA,0.187
4,CACCCGCA,-0.149
5,ATTAAATC,0.102
6,CCGACAGG,-0.273
7,GCATTCTA,0.105
8,CAGTCATA,0.0934
9,CGTGTTCC,-0.18
10,ACATAGGT,0.171
11,CTGCAAGA,-0.151
12,ACGTTATC,0.265
13,ACAGGAGA,-0.199
14,AAGATTCT,0.206
15,AAAGCACG,-0.0701
16,CCAGTAGA,0.176
17,GACAACTA,0.295
18,CCGGCACC,-0.324
19,ACATGGCC,-0.116
20,CAATCGTA,0.0615
21,ATTGAAGC,0.0717
22,CCCACCCG,-0.154
23,GCTACTAA,0.229
24,AAAGAGTC,-0.188
25,TCTATCAA,0.283

row,Sequence,binding signal [E-score]
1,AACTGCTG,-0.0468
2,CCCTGCCC,-0.359
3,CGCTGTTA,0.0922
4,GGCTTTGA,-0.27
5,AGAACGAG,-0.224
6,AGTGCTGA,-0.243
7,CCAATGGC,-0.09
8,AAAACTGG,0.0097
9,CCGCGCTA,0.0263
10,CAGCTTCA,-0.133
11,CGCTAGAG,-0.0232
12,AGAACCCG,-0.0881
13,ATCCTCTG,-0.0465
14,AGCTAGGC,-0.111
15,ATCTATCA,0.451
16,AATACATC,0.303
17,AATAGTCG,-0.0896
18,GCCGATCA,-0.154
19,CTATGACC,-0.00424
20,ACCCTGGG,-0.258
21,GATCATGC,-0.111
22,AACCAGTG,-0.05
23,AAGCAGGC,-0.299
24,GAGATACA,0.165
25,CAAACCAG,-0.17

row,Sequence,binding signal [E-score]
1,CAGGCCTC,-0.336
2,AGGCCAGC,-0.338
3,ACAAGACT,-0.0977
4,AGCAGATG,0.175
5,CCTGGGAA,-0.112
6,CACTGTAC,0.044
7,ACACTCTG,-0.0681
8,ACTGCCCT,-0.164
9,CCTTTTCC,-0.198
10,CAAGGACG,-0.244
11,GCCAGTGA,-0.203
12,GCTCGCAC,-0.254
13,GTCGATCA,-0.0345
14,AGTGACAA,0.155
15,CTAACGTC,0.0592
16,CCATTGTA,0.192
17,ACTAATAT,0.342
18,ACGGCGCG,-0.12
19,AGTCCGAC,0.0436
20,CAAGGTAG,0.0703
21,CCTGCCAG,-0.296
22,CAAGTCCA,-0.0464
23,CGCCCGCG,-0.254
24,AGCGACAC,-0.0888
25,GCGGCGAA,0.0285

row,Sequence,binding signal [E-score]
1,TCCGAAGA,-0.0517
2,CAATCGCA,0.0441
3,TCTACACA,0.297
4,GGCAAACC,0.0213
5,AAAGCTGT,0.147
6,AGTGGCTC,-0.159
7,CCACCCCA,-0.195
8,GCGATTCC,-0.0362
9,CAGACGTA,0.0474
10,AACACAGG,-0.202
11,CCCTAGGC,-0.264
12,TAAAGCTA,0.232
13,AAGCTGAG,-0.294
14,ACGTTGAT,0.0039
15,AACGATGA,-0.0484
16,TAGGGTAA,0.0713
17,CTGAGTGC,-0.18
18,GGCTAGAC,-0.152
19,ATACGTAG,0.25
20,ATACTAGA,0.305
21,CCACCTGC,-0.193
22,TACATGAA,0.0723
23,CAATTTAC,0.357
24,ATGGTTTC,-0.0722
25,AGTGGCCC,-0.292

row,Sequence,binding signal [E-score]
1,GTCGAAAA,0.174
2,GCGGAAAC,0.0598
3,TCCTAGAA,0.00595
4,ATACTCCC,0.0875
5,ACGATACT,0.17
6,CGTTTTCA,-0.0447
7,TACTCATA,0.176
8,ACGGCGTG,-0.163
9,GAAGCGGA,-0.239
10,GCCGTCAC,-0.0373
11,TAGATATA,0.359
12,AAGCTTCG,-0.183
13,GGAAATAC,0.233
14,GAACTTCA,-0.0423
15,AAGATGAC,-0.0894
16,CTCAACCC,-0.181
17,AATCTTCA,0.0725
18,GCCCGCGC,-0.345
19,CGCACGGC,-0.148
